Screen size: about 310,000 compounds; about 14,000 (4.5%) showed an effect of 50% or more. Effects have a minus sign here. The list shows a part of the results.
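Further: peak tail current of the secondary pulse compared with the same well before compound.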

The assay deals with human ether-à-go-go-related gene (hERG) potassium channel (human, UniProt Q12809). Put plainly: primary screen, population patch clamp on CHO cells stably expressing hERG.
Chain of human ether-à-go-go-related gene (hERG) potassium channel (Q12809 whole entry, looked up): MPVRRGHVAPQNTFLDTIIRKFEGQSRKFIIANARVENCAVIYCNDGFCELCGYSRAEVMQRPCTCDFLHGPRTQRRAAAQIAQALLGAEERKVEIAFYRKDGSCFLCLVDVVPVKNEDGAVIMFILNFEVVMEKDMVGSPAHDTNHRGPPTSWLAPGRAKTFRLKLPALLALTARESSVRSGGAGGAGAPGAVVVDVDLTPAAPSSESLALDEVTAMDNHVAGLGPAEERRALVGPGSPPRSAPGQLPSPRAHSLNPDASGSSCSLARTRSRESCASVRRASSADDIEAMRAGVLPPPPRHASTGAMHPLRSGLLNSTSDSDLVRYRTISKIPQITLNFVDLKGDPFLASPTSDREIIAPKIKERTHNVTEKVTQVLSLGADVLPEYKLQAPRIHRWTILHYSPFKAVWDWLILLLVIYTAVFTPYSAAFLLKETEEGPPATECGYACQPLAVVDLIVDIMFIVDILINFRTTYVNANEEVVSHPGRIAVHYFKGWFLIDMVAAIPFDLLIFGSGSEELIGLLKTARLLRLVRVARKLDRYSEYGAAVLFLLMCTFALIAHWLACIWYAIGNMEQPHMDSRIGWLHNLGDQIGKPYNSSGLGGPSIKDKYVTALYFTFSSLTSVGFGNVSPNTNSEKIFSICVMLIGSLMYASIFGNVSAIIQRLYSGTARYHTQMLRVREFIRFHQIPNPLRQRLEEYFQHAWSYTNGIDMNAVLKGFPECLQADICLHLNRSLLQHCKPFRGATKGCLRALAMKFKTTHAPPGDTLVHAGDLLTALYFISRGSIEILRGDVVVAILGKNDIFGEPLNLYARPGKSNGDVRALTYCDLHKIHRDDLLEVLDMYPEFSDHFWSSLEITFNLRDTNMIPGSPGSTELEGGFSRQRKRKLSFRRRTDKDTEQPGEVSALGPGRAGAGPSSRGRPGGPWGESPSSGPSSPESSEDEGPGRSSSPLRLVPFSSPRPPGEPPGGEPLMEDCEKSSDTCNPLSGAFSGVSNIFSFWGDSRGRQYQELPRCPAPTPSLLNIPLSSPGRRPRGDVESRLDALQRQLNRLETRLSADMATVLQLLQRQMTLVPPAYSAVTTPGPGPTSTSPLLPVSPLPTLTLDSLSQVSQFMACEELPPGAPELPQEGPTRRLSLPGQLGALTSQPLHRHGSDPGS
Turning to `COc1ccc(C2=NO[C@@H]3C(=O)N(c4cccc(C)c4C)C(=O)[C@H]23)cc1OC`, the “hERG current change (%, negative = inhibition) at 10uM” value worked out at 4.33%. For `Cc1ccc(NC(=O)c2cc(S(=O)(=O)NCCC3=CCCCC3)ccc2F)cc1`, the “hERG current change (%, negative = inhibition) at 10uM” value turned out to be 3.06%. On to `CC1CCc2c(sc(NC(=O)c3c([N+](=O)[O-])cnn3C)c2C(N)=O)C1` (centres unmarked), for which the “hERG current change (%, negative = inhibition) at 10uM” value was determined as 9.17%. The figure for `Cc1ccccc1Nc1nc(N)nc(COC(=O)c2ccc(S(=O)(=O)N(C)C)cc2)n1` is -3.72%. The figure for `Cc1ccc(CC2C(=O)N(c3cc(C)ccc3C)C(=O)C2C)cc1` (centres unmarked) is -1.06%; for `COCCN(CCOC)C(=S)Nc1ccccc1` it is 12.4%. The figure for `O=C1CC(C(=O)N2CCC3(CC2)OCCO3)CN1CCc1ccccc1` (centres unmarked) is 18.7%; for `Cc1cccc(-c2nnn(CC/C(N)=N/O)n2)c1` it is 1.26%; for `NNC(=O)CN1C(c2cccc(Cl)c2)=Nc2ccc(Br)cc2C1c1ccccc1` (centres unmarked) it is -27.4%. On to `N#CC(c1ccc(Cl)cc1)c1nc2ccccc2nc1C(F)(F)F` (centres unmarked), for which the “hERG current change (%, negative = inhibition) at 10uM” value is listed as 11.5%. The figure for `Cc1ccc(-c2nc3cc(Br)cnc3nc2-c2ccc(C)cc2)cc1` is -9.29%. For `Cc1ccc(NC(=O)N(Cc2cc3cc(C)cc(C)c3[nH]c2=O)CC2COCCO2)cc1` (centres unmarked) the value was -5.07%; for `COc1ccc(-c2oc3ccccc3c(=O)c2OC(C)=O)cc1`, -11.3%.

Consider `COc1ccc(-c2cn3cccnc3n2)cc1NC(=O)c1ccc(Br)o1`, for which the “hERG current change (%, negative = inhibition) at 10uM” value is -10.7%. For `O=[N+]([O-])c1ccc(N2CCCCC2)cc1SCCO` the value was -16.7%; for `Cc1cc(C)cc(OCC(=O)Nc2ccc(CN3CCCCC3)cc2)c1`, -43.7%. For `O=C(CSc1nnc(-c2cccnc2)n1Cc1ccccc1)NCc1ccco1` the value was -1.17%; for `Cn1c(SCC(=O)Nc2ccc(F)cc2F)nnc1-c1cccnc1`, -5.64%. The figure for `COc1cccc(C(=O)NCC(c2ccco2)N2CCc3ccccc3C2)c1` (centres unmarked) is -17%; for `COCCCNc1nc2c(c(=O)n(Cc3cccc(Br)c3)c(=O)n2C)n1C` it is -7.68%; for `COc1ccc(NC(=O)COC(=O)C2CCC(C(C)(C)C)CC2)c([N+](=O)[O-])c1` (centres unmarked) it is 19.4%.

As for `COc1cc(/C=N/NC(=O)/C(=C\c2ccc([N+](=O)[O-])cc2)NC(=O)c2ccccc2)cc(OC)c1O`, the “hERG current change (%, negative = inhibition) at 10uM” value is given as -14%. The figure for `Cc1nc2ccccc2c2c1CC(C(C)(Cl)Br)O2` (centres unmarked) is -61.6%. For `O=S(=O)(Cc1ccccc1)N1CCN(Cc2ccc(F)cc2Cl)CC1` the value was 4.56%; for `COCCN(CC(=O)Nc1cccc(C)c1C)C(=O)c1cc(-c2cccs2)nn1-c1ccccc1`, 1.14%.

As for `O=C(O)CCS(=O)(=O)Cc1ccccc1Cl`, the “hERG current change (%, negative = inhibition) at 10uM” value was found to be 12.1%. For `O=C(NCCS(=O)(=O)c1ccc(Br)cc1)c1ccc(F)cc1` the value was 5.9%; for `O=C(CCN1C(=O)/C(=C/c2ccccc2Cl)SC1=S)NCCCN1CCOCC1`, -15.8%; for `COc1ccc(CN2C(=O)NC(=O)/C(=C\c3ccco3)C2=O)cc1`, 27.2%. The figure for `C=CCNC(=S)N1CCC(C(=O)c2ccc(F)cc2)CC1` is -44.4%; for `Cc1ccc(OCCOCCN2CCN(C)CC2)c(C(C)(C)C)c1.O=C(O)C(=O)O` it is -1.1%.

As for `COc1ccc(C(C)NC(=O)Nc2ccc(C(C)=O)cc2)cc1OC` (centres unmarked), the “hERG current change (%, negative = inhibition) at 10uM” value turned out to be 12%. The figure for `N/C(=N/OC(=O)c1cccc([N+](=O)[O-])c1)c1cccc([N+](=O)[O-])c1` is 19.3%; for `CCOc1ccccc1NC(=O)NCc1ccco1` it is 8.52%. `COc1ccc(Cl)cc1C(=O)NCCCn1ccnc1`: the “hERG current change (%, negative = inhibition) at 10uM” value stood at 4.53%. Regarding `COc1cc(CN2CCN(Cc3c[nH]c4ccccc34)CC2CCO)cc(OC)c1` (centres unmarked), the “hERG current change (%, negative = inhibition) at 10uM” value was -32.3%.

`Cc1ccc(C(=O)CSc2nnc(COc3cccc(C)c3)o2)cc1`: the “hERG current change (%, negative = inhibition) at 10uM” value was -0.502%. For `CCN(CC)C(=O)Oc1ccc2oc(=O)cc(-c3cc4cccc(OC)c4o3)c2c1` the value was 4.26%; for `CC(O)C1C(=O)OC2(C)CC(C)(C)NC(=S)N12` (centres unmarked), 3.17%. The figure for `CCNS(=O)(=O)c1ccc(NC(=O)c2ccc(Cn3cc([N+](=O)[O-])cn3)o2)cc1` is -34.8%; for `CCc1nc2ccccc2c(C(=O)O)c1C` it is -1.62%; for `CCOc1cc(CNCCCN2CCOCC2)ccc1OCC(=O)Nc1cccc2ccccc12.Cl` it is -7.77%. The figure for `Cc1cc(NC(=O)c2ccc(Cl)cc2)cc(C)c1OCC(=O)N1CCOCC1` is -52.4%; for `CCOc1ccc(CC2NCCc3cc(OCC)c(OCC)cc32)cc1OCC` (centres unmarked) it is -13.3%.

These data come from paper PMC4336329 (PLoS ONE, 2015).
